Out of some 310,000 compounds screened, about 18,000 (5.8%) were called active. Inconclusive means that the source gave no clear call. Such entries were picked first, then a sample of the others. Calls come from the whole dose curve; as a rule, active = well fitted inhibition curve with a large enough effect; inconclusive = small, poorly fitted or top-dose-only effect, or another doubt; inactive = no such curve, though single readings can be large or run the other way. Potencies of inconclusive entries are left out as doubtful fits.
test: Primary qHTS for delayed death inhibitors of the malarial parasite plastid, 48 hour incubation; settings: P. falciparum luciferase growth in erythrocytes; series mostly up to 28.7 µM
Summary of the method: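 Luciferase-expressing P. falciparum in infected erythrocytes (2% hematocrit, 0.1% parasitemia final) in RPMI 1640/0.5% Albumax were exposed to compound for 48 hours at 37 C, 5% CO2; growth read as luminescence.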
Potency is the fitted concentration of half-maximal effect; tags give direction and shape of the fitted curve.

Row | SMILES | Potency
1 | Cc1nc2c(=O)n(C)c(=O)nc-2n(C)n1 | active: 0.329 µM
2 | CC[C@@H](C)C(N)C(=O)O (some centres not stated) | inactive
3 | COc1cccc(NC(=S)NCc2cccs2)c1 | inactive
4 | COc1ccc(C2C(C(=O)N3CCN(c4ccccc4)CC3)c3ccccc3C(=O)N2C)cc1OC (configuration not stated) | inconclusive [inhibitor, single point]
5 | COc1ccc(C(=O)OCCCOC(=O)c2ccc(OC)cc2OC)c(OC)c1 | inactive
6 | C=CCn1c(CNC(=O)c2ccccc2F)nnc1SCc1nc2ccccc2c(=O)[nH]1 | inactive
7 | CCOc1ccccc1CNC(=O)CCCC(=O)n1nc(C)c2ccccc21 | inactive
8 | CCn1c(SCC(=O)NCCc2ccccc2)nnc1-c1ccco1 | inactive
9 | O=C(COc1ccc(Br)cc1)Nc1ccc(S(=O)(=O)Nc2ccccn2)cc1 | inactive
10 | COc1ccc(C(CCO)NC(=O)c2cccs2)cc1OC (configuration not stated) | inactive
11 | COC(=O)Cn1ncc2c3ccccc3n(Cc3ccccc3)c2c1=O | inconclusive [inhibitor, single point]
12 | CN1CCN(c2oc(-c3ccccc3)nc2S(=O)(=O)c2ccc(Br)cc2)CC1 | inconclusive [inhibitor, single point]
13 | CCN(CC)S(=O)(=O)c1cccc(C(=O)N2CCCc3ccccc32)c1 | inactive
14 | C/C(=N\NC(=O)CSc1ncccn1)c1ccc2c(c1)OCCO2 | inactive
15 | Cc1ccc(NC(=S)NNC(=O)c2ccccc2O)c(C)c1 | inconclusive [inhibitor, single point]
16 | Cc1ccc(S(=O)(=O)CC(O)COc2ccc(C#N)cc2)cc1 (configuration not stated) | inactive
17 | C/C(CCN1CCc2nc(-c3ccccc3)c(-c3ccccc3)cc2C1)=N\O[C@H](C)c1cn([C@H](CO)Cc2ccccc2)nn1 | active: 9.28 µM
18 | CCOC(=O)C1(CCOc2ccccc2)CCN(Cc2ccc(C)o2)CC1 | inconclusive [inhibitor, full curve, poor fit]
19 | CN1CCN(c2ccccc2NC(=O)c2ccc([N+](=O)[O-])o2)CC1 | inconclusive [inhibitor, partial curve]
20 | O=C(Nc1nc(-c2ccccc2Cl)cs1)c1cccnc1 | inconclusive [inhibitor, single point]
21 | COc1ccc(/C=C/C(=O)c2cc(Cl)cc(Cl)c2O)c(OC)c1 | inactive
22 | CCOC(=O)C1(CCCc2ccccc2)CCN(C(=O)c2ccoc2)CC1 | inconclusive [inhibitor, single point]
23 | COc1ccc(CCNC(=O)C2CCN(S(=O)(=O)c3ccc(Cl)cc3)CC2)cc1OC | inconclusive [inhibitor, single point]
24 | Cc1ccc(NC(=O)CCC(=O)N/N=C/c2ccc([N+](=O)[O-])o2)cc1C | active: 7.38 µM

Row | SMILES | Potency
25 | Cc1cc2[nH]c(=O)c(=O)[nH]c2cc1S(=O)(=O)N1CCN(c2ccccc2F)CC1 | inconclusive [inhibitor, partial curve]
26 | COc1ccccc1CN1C[C@@H]2C[C@@H](c3ccc(C)c(C)c3)N3CCC[C@@]23C1=O | inconclusive [inhibitor, partial curve, poor fit]
27 | O=C(C(=O)N1CCN(c2ccc(F)cc2)CC1)c1c[nH]c2ccccc12 | inconclusive [inhibitor, partial curve, poor fit]
28 | Cc1ccnc(NS(=O)(=O)c2cccc3nsnc23)c1 | inconclusive [inhibitor, full curve, poor fit]
29 | COc1ccccc1C1=CC(=O)C[C@H](c2ccc3c(c2)OCO3)C1 | inactive
30 | Cc1cccc2[nH]c3c(N4CC=C(c5ccc(F)cc5)CC4)ncnc3c12 | active: 10.4 µM
31 | Cc1cccc(N(C)S(=O)(=O)c2ccc3c(c2)NC(=O)CC(=O)N3)c1 | inconclusive [inhibitor, partial curve, poor fit]
32 | Cc1cc(NC(=O)CSc2nc3cc(Cl)ccc3o2)no1 | active: 8.28 µM
33 | Cc1cccc(C(=O)Nc2ccc(N3CCN(C(=O)c4ccco4)CC3)cc2)c1 | inconclusive [inhibitor, partial curve]
34 | C=CCn1c(N2CCCCCC2)nc2c1c(=O)[nH]c(=O)n2C | inconclusive [inhibitor, single point]
35 | COc1ccc(OC)c(CN2CCN(c3ccc(S(=O)(=O)N4CCCC4)cn3)CC2)c1 | inconclusive [inhibitor, single point]
36 | CC(C)NC(=S)NC(c1ccccc1)(c1ccccc1)c1ccccc1 | active: 6.57 µM
37 | Cc1nc(N2CCN(C(=O)c3ccco3)CC2)[nH]c(=O)c1C | inconclusive [inhibitor, partial curve, poor fit]
38 | O=S(=O)(c1ccccc1F)N1CCN(CCOc2ccccc2)CC1 | inactive
39 | CN1CCc2c(sc3c2C(=O)NC(c2ccco2)N3)C1 (configuration not stated) | inactive
40 | O=C(CCC1CCN(C(=O)Cc2c(F)cccc2F)CC1)NC1CC1 | inactive
41 | CCCn1c(C(C)Nc2nc(-c3ccc(OC)cc3)cs2)nc2ccccc21 (configuration not stated) | inconclusive [inhibitor, single point]
42 | COc1cc(NC(=O)C2CCCCC2)c(OC)cc1NC(=O)c1ccccc1 | inconclusive [inhibitor, partial curve, poor fit]
43 | CC(C)COc1ccc(C(=O)N(CC(=O)Nc2ccccc2C(F)(F)F)Cc2ccco2)cc1 | inconclusive [inhibitor, single point]
44 | CCOC(=O)/C(=C\C=C1/Sc2ccccc2N1CC)C(C)=O | inconclusive [inhibitor, single point]
45 | c1ccc2[nH]c(CSc3nccs3)nc2c1 | inactive
46 | CCOc1ncccc1C(=O)NCC1COc2ccccc2O1 (configuration not stated) | inconclusive [inhibitor, partial curve, poor fit]
47 | CCCCN(C(=O)CCC(=O)Nc1cc(C)on1)C(C(=O)NC1CCCC1)c1ccc(F)cc1 (configuration not stated) | inconclusive [inhibitor, partial curve]
